Some of the results follow.
What follows are molecules tested on T1, C. trachomatis L2/434/Bu expressing GFP (CTL2-GFP). Settings: total inclusion area; 28.5 h, 10 µM; inhibitor.
T1 construct: L2/434/Bu GFP intracellular growth in HeLa cells
Design: species or system HeLa; C. trachomatis total inclusion area by high-content imaging, normalised to DMSO
Procedure, shortened: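 High-content images of fixed, Hoechst-stained infected cultures supply inclusion area and count (growth) plus nuclei number (viability), complementing bulk GFP/resorufin fluorescence. MIC determination is unchanged from the primary assay.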

| Structure (SMILES) | % of control remaining |
| --- | --- |
| CS(=O)(=O)c1cccc(-c2cnc(NCC3CC3)c(C(=O)Nc3ccc4c(c3)OCO4)c2)c1 [CBK076362] | 69.5786 |
| O=C(c1ccco1)N1CCC(Cn2cncn2)(C2CCCCC2)CC1 [CBK136811] | 120.633 |
| CCC(=O)Nc1ccc(-c2nc3ccccc3[nH]2)cc1 [CBK287561] | 86.5444 |
| O=C(NCc1cccs1)c1cnoc1-c1ccc([N+](=O)[O-])cc1 [CBK153845] | 97.6476 |
| Cc1[nH]c(=S)[nH]c(=O)c1Cc1cccc2ccccc12 [CBK115563] | 66.009 |
| Cn1c(=O)c2c(nc(CN3CCCCC3)n2CCCc2ccccc2)n(C)c1=O [CBK269521] | 82.3809 |
| O=C(O)CCC(=O)Nc1ccc(-c2nc3ccccc3o2)cc1 [CBK261330] | 82.8933 |
| O=C(c1cccs1)N1CCCN(Cc2cn3ccccc3n2)CC1 [CBK305304] | 27.1452 |
| Fc1cccc(-c2nc3cnccn3c2NCc2cccs2)c1 [CBK282363] | 107.891 |
| CC(C)(C)OC(=O)N1CCC2(CC1)NC(=O)c1cc(-c3cccc(S(C)(=O)=O)c3)ccc1O2 [CBK131967] | 74.5857 |
| NC1=NN2C(=C(c3ccc(O)c(C(=O)O)c3)NN2c2ccccc2)N1 [CBK025631] | 95.016 |
| O=S(=O)(Nc1ccc2[nH]ncc2c1)c1ccc(Oc2ccccc2)cc1 [CBK062522] | 74.5054 |
| Cc1cc(-n2cccn2)ccc1CN1CCCCC1CN1CCOCC1 (stereo not shown) [CBK307442] | 81.1762 |
| N#Cc1ccc(CSc2cccc(F)c2)cc1 [CBK002918] | 74.5336 |
| O=c1[nH][nH]c2nc(O)cc(C(F)(F)F)c12 [CBK027081] | 65.8146 |
| O=C(c1nccs1)C1CCN(C(=O)CC2CCCC2)CC1 [CBK284207] | 82.0015 |
| O=C(c1ccc(F)cc1)C1CCN(CC(O)COc2cccc3c2CCCC3)CC1 (stereo not shown) [CBK003583] | 93.0149 |
| Cc1ccc(-c2n[nH]c(=S)n2CCC(=O)NCc2ccc(-c3csc(C)n3)s2)cc1 [CBK297924] | 102.036 |
| CSc1ncc(Cl)c(C(=O)NCCc2ccc(S(N)(=O)=O)cc2)n1 [CBK268679] | 102.976 |
| CCc1ccc(CNC(=O)Cn2nnc(-c3ccc(CNC4CCC4)cc3)n2)cc1 [CBK155006T] | 127.146 |
| Cc1ccccc1NC(=O)CC(C(=O)O)N1CCOCC1 (stereo not shown) [CBK266969] | 103.948 |
| Cc1nc(C)c(CC(=O)Nc2cccc(CN3CCCC3)c2)s1 [CBK281426] | 92.638 |

— paper PMC12040169 (PLOS Biology, 2025)
